# Measurements as given in the supplement of paper PMC11417369.
# ± gives the standard deviation of the averaged measurements. The list shows a part of the results.
# Tested on: PfAP2-LT AP2 domain (GST-tagged)
# Test: gcPBM binding intensity (ln(normalized median fluorescence intensity)); higher = stronger DNA binding
# Procedure, shortened: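 Binding of GST-tagged P. falciparum DNA-binding domains, expressed in E. coli and used at about 25 μg on average, was carried out for 1 h in 1× PBS containing 1% milk, 0.2 mg/ml BSA, 0.5% salmon testes DNA and 0.03% Triton X-100. The target was an Agilent 4 × 180k array of primer-extended double-stranded 36-bp intergenic genomic probes plus negative controls, read with Alexa488 anti-GST antibody at 488 nm. Binding intensity is the highest Masliner-normalised natural-log median intensity across replicate spots of either probe orientation.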
row,Sequence,gcPBM binding intensity (ln)
1,ATATGCACTTTTTGCACACGTATGAATAACAAAATA [CACACA_site1810],9.09 ± 0.33
2,ACATATAGATAAATATGTACATATATATATATATAT [XGTACX_site1806],9.74 ± 0.2
3,AAATGTGAAAAAGAGTGTACCCGACTTGAAATTAAG [XGTACX_site8621],8.96 ± 0.42
4,AGTAGAATATCCCCTACACACCCAAGTAATTTACAA [CACACA_site6708],9.29 ± 0.33
5,AATTAAAAGTGAAGAGTGCATAGAATTTTTTACTTT [GTGCAC_site9973],8.61 ± 0.54
6,TTTAATTTTCAATGGCGTACATATAAAATATTATAT [XGTACX_site1672],8.62 ± 0.32
7,ATATAAGTATATCTATGTACATACAATATAAATGTA [XGTACX_site2153],8.81 ± 0.49
8,TATATACATACATATTGTACTTATAAAGATTAATTT [XGTACX_site2203],8.57 ± 0.37
9,TTTTAAAAAAAAAAAAAATAAGATAAAATTAAATAA [GTGCAC_negctrl_site367],8.06 ± 0.51
10,ATAAAAAATATCACATAAAATAAAAAAAGAAAGGAT [XGTACX_negctrl_site294],9 ± 0.59
11,TATATATAAAAATATACACACTGTATTATTGTAATA [CACACA_site5959],8.71 ± 0.4
12,TATATATATACAGTAGTGCATATATTTAAAATATAT [GTGCAC_site9999],8.8 ± 0.45
13,ATATATAAAAATAAATGTACATATTCATATGATGAT [XGTACX_site3411],8.86 ± 0.46
14,ATAGGATATTATTCCTGTACATATATATATATATAT [XGTACX_site2108],9.58 ± 0.24
15,GACAATTATATGTAGGTGCATATACAAATTTTTTAA,8.85 ± 0.45
16,AATAGTTATTCCAGGTGTACATAACATATAATTTAC [XGTACX_site1340],8.79 ± 0.42
17,ATCAAAAGAAGACACACACACATACCTATAAATATA [CACACA_site7736],9.89 ± 0.33
18,TTATTATTATTACTTACGCACACTTTTTTTTTTATT [CACACA_site411],9.08 ± 0.52
19,ATATATATATATATATGTACATACAATTATATTCTC [XGTACX_site1133],9.82 ± 0.25
20,AATCTTCTTAATTGTAGTACACAATTTATAAACAAA [XGTACX_site8706],8.49 ± 0.52
21,TACATAAATTTTAATACATGCAAATAAAATATATAA [TGCATGCA_site131],8.62 ± 0.31
22,AAAAATCATTTAAGAACACACAAATATTTCCATTAA [CACACA_site1488],8.65 ± 0.48
23,AAAAAAAAAAAAAACACACACACATAGACCTCCAAT [CACACA_site3563],10.2 ± 0.26

row,Sequence,gcPBM binding intensity (ln)
1,ATAACGAACACTATTACACACATACATACATATGTA [CACACA_site5092],9.3 ± 0.29
2,TTTTTTGTTACAACAGTGCAAAAAAACCTTAATGTT,8.51 ± 0.49
3,AAATGACTATATAAAAGTACTAGAAAGTATAAATAT [XGTACX_site944],8.95 ± 0.5
4,AAAATACACGATAGTTGTACATTAAATGTATACAAT [XGTACX_site360],9.12 ± 0.39
5,CATCCGTTGATATATGCATGCATATTGTTATTACCA [TGCATGCA_site868],9.11 ± 0.36
6,TCTAATACACAATGTTGTACATATTAATATATATGT [XGTACX_site2931],8.88 ± 0.43
7,ATCATTCTTAAACCGTGTACTTATTATTTTTTTTTT [XGTACX_site2798],8.85 ± 0.54
8,TATAAAGATATAAATGCACACGTATTAAAAAAAAAA [CACACA_site8223],9.05 ± 0.41
9,CCTCTCATTTTATATAGTACATATTTCAAAAAAAAA [XGTACX_site488],8.12 ± 0.35
10,GCATATATGGATATATAGGTATATATAAATGCAATA [GTGCAC_negctrl_site24],8.93 ± 0.51
11,AGGAGGATAGTTCACAGTACCCAGTAACTCTACGGA [XGTACX_site1997],8.77 ± 0.52
12,ATATAAAAAAAAAATTGTACAAAAATATATACATAT [XGTACX_site469],8.87 ± 0.43
13,GCATATTTTCCCTGTGAATAAAGTTTTTTTTTTTAT [XGTACX_negctrl_site87],8.6 ± 0.52
14,AAGGTATAGAAACACACACACGTGAATATAGTTTAA [CACACA_site5109],9.53 ± 0.39
15,TATATATGTATATATTGTACTTTAAGACAAATATAT [XGTACX_site1052],8.54 ± 0.37
16,TTCTTAAATATATTCAACATACATAATATATAATCT [CACACA_negctrl_site1806],8.43 ± 0.54
17,AATATTTTTCAATTTCATGTGCATTCATTGAAGTTA [CACACA_negctrl_site1232],8.64 ± 0.4
18,TATATAACATATATATGTACACATAATATCAGATTT [XGTACX_site1041],8.88 ± 0.43
19,CGTTATATAATAAAGGTGCATAGATATATCATTATA [GTGCAC_site9774],8.71 ± 0.45
20,ATATAAAAAAGGGAGGTAAATGAATGTGAAACCCAA [GTGCAC_negctrl_site359],8.85 ± 0.44
21,TTTTAATTAGTACAAACACACATATACACCCAAAAA [CACACA_site5422],9.12 ± 0.27
22,CTAATATAGGTATGCACACACAATATGTACATATTT [CACACA_site7558],9.55 ± 0.39
23,TAATTTTTTTTAAACACACACATTACATTCAAAAAT [CACACA_site127],8.94 ± 0.4

row,Sequence,gcPBM binding intensity (ln)
1,TTTCAAATATATATAGCACACAAGGTATAATATAAA [CACACA_site877],8.83 ± 0.44
2,TTCACTAATAAATACGCACACATATACATATATATA [CACACA_site1383],9.08 ± 0.38
3,TAATTGTAGACATGCACACACAAATATTATATATGT [CACACA_site845],9.41 ± 0.33
4,TATTTTTTACATTCGTGTACGCATTTTTGTGAATTT [XGTACX_site5339],8.98 ± 0.5
5,ACAAAAATATTTGTAAAAAGAAATATAAATAAATAA [TGCATGCA_negctrl_site357],8.5 ± 0.49
6,AAAAATAGAGCAGCTCTCATATTTTTATGTGCAATA [CACACA_negctrl_site837],8.59 ± 0.38
7,AGGATATATTATATGTACACACACATATAAGGGATT [GTGCAC_negctrl_site47],9.45 ± 0.37
8,TATTACACACAATATTGTACACATAGGAAAAATATT [XGTACX_site1726],9.16 ± 0.38
9,GCATTTATGAAAAATGTACACACATCAAATGCTTAT [CACACA_site9347],8.98 ± 0.34
10,TATTTTATTTTTTGTTGTACATATATATTATATATA [XGTACX_site4513],8.78 ± 0.49
11,ATATGTAAAATATGGTGTACAATCAAATAAAAAAAA [XGTACX_site6270],8.99 ± 0.49
12,ATTAATATATTTACCACACACCCATTTCGATTTTAT [CACACA_site3605],9.18 ± 0.34
13,AATATATATATATATCCACACACATACATATATTAA [CACACA_site7907],9.36 ± 0.28
14,TACATAAAAATATATGCATGTTCTTATTTAATAAAA [TGCATGCA_site743],8.29 ± 0.39
15,ATGGTTTTTATTTTATGTACTTACTAAAATGAATAA [XGTACX_site4317],8.52 ± 0.37
16,AAAATATTATTACAGAAACAAAAAGAAAAATATATA [GTGCAC_negctrl_site285],8.6 ± 0.55
17,GAATATGTTAACATTTGTACATAAAATTTTTTACAA [XGTACX_site2444],8.48 ± 0.38
18,GATATATTACTTAAAATACACACCATGGAAAAGTTT [CACACA_site2606],8.9 ± 0.45
19,ATGTTTAAATTTTTCAGTACATATATTCTAGTAAAA [XGTACX_site1010],8.38 ± 0.38
20,ACTATATTTCATAACAGTACATATTCCTGAAACATC [XGTACX_site4924],8.79 ± 0.39
21,ACAATATAAAAAAATTGTACATAATATATAATATTA [XGTACX_site1040],8.61 ± 0.52
22,CATGCTTATATGTGCACACACAAAAGAAAAGAAAAA [CACACA_site1655],9.56 ± 0.51
23,TGTTACATAAAATGCACACTTTCAAATATGCTAATA [CACACA_site2925],8.65 ± 0.31

row,Sequence,gcPBM binding intensity (ln)
1,TATAAGCTAAGTTGTTGTACAAAAAGGAAAAGTATA [XGTACX_site3741],9.05 ± 0.65
2,AAAAAAATCTCCAGTGTGCACAATCACATAATATAT [GTGCAC_site9833],9.27 ± 0.47
3,GAGATAAAATAAAACACACACATATATATATAGAAT [CACACA_site2197],9.54 ± 0.33
4,TATACGTATTTTATATGTACACATATACATATTTAT [XGTACX_site5301],9.15 ± 0.48
5,TTTTCTTTTAAGTTTGTTTTACACTTTTTATTTTGA [CACACA_negctrl_site1581],8.71 ± 0.68
6,AATATATGGTTTCATGATATTAAATTCAATTTAATG [GTGCAC_negctrl_site370],8.4 ± 0.36
7,AAATATAAATATACTCGTACATATATATATATATAT [XGTACX_site6940],9.47 ± 0.26
8,ATATATATATATAGTAGTACTCTCTCTGTATATATA [XGTACX_site3754],9.29 ± 0.057
9,ATTTAGAAAAATAAAACACACATATATCTGTAAATA [CACACA_site6119],9.13 ± 0.35
10,TTCCTTTGTTGTCGTTGTACTTATATGGTTATAATT [XGTACX_site3082],9.11 ± 0.36
11,TATACATAAAAAAATTTTACCAGGTTAATACAAATA [CACACA_negctrl_site1171],8.57 ± 0.42
12,TACCTTATGTTATATACACACATATAACATAATATA [CACACA_site6741],8.96 ± 0.36
13,AATTAGACATAATATACACACATATATTATATATAT [CACACA_site2691],9.02 ± 0.45
14,TTCAAAAGATATATCGTGCACATATATATGATGAAA,8.88 ± 0.47
15,ATTTTTTTGGAATTCACACACAAAAAAAAAAATAAA [CACACA_site2081],8.79 ± 0.47
16,TCCACACAATTTATAACATGCAAAAAGGCAATAATA [TGCATGCA_site773],8.74 ± 0.47
17,TAGGTATATAAATAATGTACATATAAACTATATAGA [XGTACX_site2597],8.9 ± 0.54
18,ATGTTGAGTATATATACACACATACAGATATATATA [CACACA_site4967],9.18 ± 0.35
19,ATACATTCTTATTACTGTACAGGGTTAATTATTTGT [XGTACX_site948],9.02 ± 0.49
20,TGGAGATAAAATAAAACACACACATATATATATATA [CACACA_site8683],9.945 ± 0.035
